Source: ChEMBL document CHEMBL1201862, “PubChem BioAssay data set” (2004)
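Method: 48-hour compound exposure of cells in 96-well plates, five concentrations, linear interpolation of endpoints. Abbreviation: GI50, concentration required for 50% inhibition of growth.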 Active and inactive are the calls of the source. No stated cut-off is given here; in the data, active = GI50 up to about 1.1 µM and inactive = higher.

Tested on: NCI-H322M
Assay: NCI-60 cell line screen, 48 h

| Structure (SMILES) | GI50 |
| --- | --- |
| Cc1cccc(NC(N)=S)c1 | inactive: > 100 µM |
| COc1ccc(/C=C/C(=O)Oc2ccc(/C=C3\CCCCC3=O)cc2)cc1 | inactive: > 100 µM |
| CC1=CC(=O)C2=C(C)CCC3C(C)C(=O)OC3C12 (centres undefined) | inactive: > 100 µM |
| COc1ccc(S(=O)(=O)NC(C)C(=O)O)cc1 (centres undefined) | inactive: > 100 µM |
| COc1ccc(-c2cc(O)c3cc4c(cc3n2)OCO4)c(OC)c1OC | inactive: > 100 µM |
| COc1ccc(NC(S)=Nc2ccccc2)cc1 | inactive: > 100 µM |
| O=C1NC(c2cccc3ccccc23)Nc2ccccc21 (centres undefined) | inactive: 1.18 µM |
| S=C(Nc1cccc(Cl)c1)Nc1ccccn1 | inactive: > 100 µM |
| COc1ccc(CC(=O)NCCc2ccc(OC)c(OC)c2OC)cc1 | inactive: > 100 µM |
| Cn1c(=O)sc2cc(C(=S)N3CCN(c4ccccc4)CC3)ccc21 | inactive: 73.1 µM |
| Cc1ccc(S(=O)(=O)ON2C(=O)c3cccc4cc([N+](=O)[O-])cc(c34)C2=O)cc1 | inactive: 83.9 µM |
| CC(C)/C=C1\CCC(CN(C)C)C1=O (centres undefined) | inactive: 17.6 µM |
| C=C[C@]1(C)C[C@@H](OC(=O)CO)[C@@]2(C)[C@H](C)CC[C@]3(CCC(=O)[C@H]32)[C@@H](C)[C@@H]1O | inactive: > 100 µM |
| Cc1ccc(C)c(C(=N)c2ccccc2Cc2ccccc2)c1 | inactive: 28.4 µM |
| NC(=O)c1c([N+](=O)[O-])cc(C(F)(F)F)cc1[N+](=O)[O-] | inactive: > 100 µM |
| C#C[C@]1(O)CC[C@H]2[C@@H]3CCC4=C/C(=N\OCCN(CC)CC)CC[C@]4(C)[C@H]3CC[C@@]21C | inactive: 6.89 µM |
| N#Cc1c(-c2ccccc2)c(C=O)c(=O)n2c1[nH]c1ccccc12 | inactive: 92.3 µM |
| N#CC(C#N)=Cn1c(=S)[nH]c2ccc([N+](=O)[O-])cc21 | inactive: > 100 µM |
| COC(=O)c1nc(-c2ccc(Cl)c(Cl)c2)nc2ccccc12 | inactive: > 100 µM |
| CCC1=C(C=O)c2cc3[nH]c(cc4nc(c5c6[nH]c(cc1n2)c(C)c6C(=O)C5C(=O)OC)C(CCC(=O)OC)C4C)c(C)c3CC (centres undefined) | inactive: > 100 µM |
| C/C1=C\CC[C@@]2(C)O[C@@H]2C[C@@H]2[C@H](C/C(C)=C/CC1)OC(=O)C21CC1 | inactive: > 100 µM |
| Cc1cn([C@@H]2O[C@H](CO[Si](C)(C)C(C)(C)C)[C@]3(O[C@H]3C(=O)NO)[C@H]2O[Si](C)(C)C(C)(C)C)c(=O)[nH]c1=O | inactive: 1.72 µM |
| COc1ccc2c(c1)CC[C@@H]1[C@@H]2CC[C@]2(C)C(=O)/C(=C/c3cc(OC)c(OC)c(OC)c3)C[C@@H]12 | inactive: 31.4 µM |

| Structure (SMILES) | GI50 |
| --- | --- |
| O=C(NCCCCCCNC(=O)c1cccc2ccccc12)c1cccc2ccccc12 | inactive: 49 µM |
| COC1(CC[C@H](C)COC2OC(CO)C(O)C(O)C2O)O[C@H]2C[C@H]3[C@@H]4CC=C5C[C@@H](OC6OC(CO)C(O)C(OC7OC(CO)C(O)C(O)C7O)C6OC6OC(C)C(O)C(O)C6O)CC[C@]5(C)[C@H]4CC[C@]3(C)[C@H]2[C@@H]1C (some centres undefined) | inactive: 3.54 µM |
| O=C(CN1C(=O)CC(c2ccccc2)(c2ccccc2)C1=O)N1CCN(CCO)CC1 | inactive: > 100 µM |
| COC1(OC)CCN(Cc2ccccc2)C1=O | inactive: 27.1 µM |
| CC(C)[C@H]1CO[C@@H]2O[C@H](C)CC(=O)N21 | inactive: > 100 µM |
| O=C(c1ccccc1)c1ccc2[nH]c(-c3c(Cl)c(Cl)c(Cl)c(Cl)c3C(=O)N/N=C/c3ccc(Cl)cc3)nc2c1 | inactive: 39.4 µM |
| O=C1C=C(c2[nH]c3ccccc3c2C2=CC(=O)c3ccccc3C2=O)C(=O)c2ccccc21 | inactive: > 100 µM |
| CC(C)CC(N/C=C1/N=C(c2ccccc2)OC1=O)C(=O)O (centres undefined) | inactive: > 100 µM |
| CN(Nc1cc(=O)[nH]c(=O)[nH]1)c1ccccc1 | inactive: > 100 µM |
| N/C(=N\c1c([N+](=O)[O-])cnc2ccccc12)N1CCOCC1 | inactive: > 100 µM |
| COC1CC(OC2CCC3(C)C(=CCC4C3C(OC(C)=O)C(OC(=O)CC(C)C)C3(C)C(C(C)=O)CCC43O)C2)OC(C)C1OC1CC(OC)C(OC2CC(OC)C(OC3OC(C)C(O)C(OC)C3O)C(C)O2)C(C)O1 (centres undefined) | inactive: 53.7 µM |
| CCCCCCC(N)(CCCCCC)C(=O)Nn1c(C)ccc1C | inactive: > 100 µM |
| N/C(=N\Nc1nc2cc([N+](=O)[O-])ccc2o1)c1ccccn1 | active: 0.138 µM |
| Nc1ccn(C2OC(CO)C(O)C2O)c(=O)n1 (centres undefined) | inactive: 438 µM |
| O=C1c2ccccc2-n2c1nc1cc(Cl)ccc1c2=O | inactive: > 100 µM |
| Cc1nc2c(s/c(=N\N)n2-c2ccccc2)c(=O)[nH]1 | inactive: > 100 µM |
| O=C1N/C(=N/N=C\c2ccccc2)N/C1=C/c1ccccc1 | inactive: 34.4 µM |
| CC(=O)OC1CC[C@@]2(C)C(=CC[C@@H]3[C@@H]2CC[C@]2(C)Nc4nn(S(C)(=O)=O)cc4C[C@@H]32)C1 (some centres undefined) | inactive: 75 µM |
| c1cc2c(cc1NC1=NCCO1)OCO2 | inactive: > 100 µM |
| CC(C)c1c(P(=O)(c2ccccc2)c2ccccc2)n(C)c2ccccc12 | inactive: 47.1 µM |
| COc1ccc(OC(C)C(=O)O)c2c(=O)ccccc12 (centres undefined) | inactive: > 100 µM |
| CCOc1ccncc1[N+](=O)[O-] | inactive: > 100 µM |
| COCC(O)CN1C(N)=NC(O)C1O (centres undefined) | inactive: > 100 µM |

| Structure (SMILES) | GI50 |
| --- | --- |
| O=C(NNC(=O)c1ccco1)c1ccco1 | inactive: > 100 µM |
| CCC(Nc1ncnc2nc[nH]c12)C(=O)O (centres undefined) | inactive: > 100 µM |
| NNC(=O)c1c(Cl)c(Cl)c(Cl)c(Cl)c1-c1nc2ccccc2[nH]1 | inactive: 19.6 µM |
| CCOC(=O)c1ccc(NC(=O)Oc2ccc3c(C)cc(=O)oc3c2)cc1 | inactive: 71 µM |
| COc1ccc2cc(C(=O)Nc3ccc(O)c(C(=O)O)c3)ccc2c1OC | inactive: > 100 µM |
| COc1ccc2c(c1)[n+]([O-])c(-c1cccc(Cl)c1)c(N)[n+]2[O-] | inactive: 24.7 µM |
| O=S1(=O)NN=C(NCc2ccc(Cl)c(Cl)c2)c2ccccc21 | inactive: > 100 µM |
| COC(=O)/C=C1\CCCN1CCc1cc2c(cc1CC#N)OCO2 | inactive: 45.7 µM |
| C1=CC2SSSC2C1 (centres undefined) | inactive: > 100 µM |
| COC(=O)/C(=N/O)C(C(=O)OC)C(=O)C(=O)Nc1c(Cl)cc(C)cc1S(=O)(=O)O (centres undefined) | inactive: > 100 µM |
| S=C(NCCCCCCNC(=S)Nc1c2ccccc2nc2ccccc12)Nc1c2ccccc2nc2ccccc12 | inactive: 65.8 µM |
| CCCC(=O)OC[n+]1ccc2c(C)c3[nH]c4ccccc4c3c(C)c2c1 | active: 0.2 µM |
| O=C1Nc2ccccc2S/C1=C\c1cccc(C(F)(F)F)c1 | inactive: > 100 µM |
| CCOc1cc(-c2nc3ccccn3c2/N=C/c2cc([N+](=O)[O-])cc([N+](=O)[O-])c2O)ccc1O | inactive: > 100 µM |
| Cc1ccc(S(=O)(=O)N/N=C/C2(c3ccccc3)c3ccccc3-c3ccccc32)cc1 | inactive: 20.8 µM |
| COc1cc2c(cc1OC)CC1c3cc(OC)c(OC)cc3CCN1CC2 (centres undefined) | inactive: > 100 µM |
| O=C(Nc1ccc(N=C=S)cc1Cl)c1cc(Br)cc(Br)c1O | inactive: 26.1 µM |
| CNCCCNC1(c2cc3ccccc3s2)CCCCC1 | inactive: 8.05 µM |
| CC(=O)NC(CCCNC(=O)N(CCCl)N=O)C(=O)NCc1ccccc1 (centres undefined) | inactive: > 100 µM |
| COc1ccc(/C=C/C(=O)C(C)(C)Br)cc1 | inactive: 22.1 µM |
| CC(O)C1(CNc2cc(Cl)nc(N)n2)CCCCC1 (centres undefined) | inactive: > 100 µM |
| Cc1c2cc[n+](C)cc2c(C)c2c1sc1ccccc12 | active: 1.12 µM |
| CC(=O)C1CCN(c2ccccc2)C1 (centres undefined) | inactive: > 100 µM |

| Structure (SMILES) | GI50 |
| --- | --- |
| COC(=O)c1c(C)cccc1C1CN=NC12Cc1c(C)cccc1C2=O (centres undefined) | inactive: > 100 µM |
| O=C1OC[C@@H]2Cc3c([nH]c4ccccc34)[C@@H](c3cc(O)c(O)c(O)c3)N12 | inactive: 34.8 µM |
| Cc1ccc(S(=O)(=O)NC(=O)NCCc2ccc(O)c(O)c2)cc1 | inactive: > 100 µM |
| CC(=O)N(C)C=C1C(=O)N(C)C(=O)N(C)C1=O | inactive: > 100 µM |
| CC(C)=Nn1cnc2c1=NC(C)(C)NC=2C(N)=O | inactive: > 10 µM |
| CC(C)(C)[C@@H]1NC(=O)CN1C(=O)OCc1ccccc1 | inactive: > 100 µM |
| N#CC12C(=O)N3C(=NC(c4ccco4)NC3c3ccco3)C1(C#N)C(c1ccco1)NC1=C2CCCC1 (centres undefined) | inactive: > 100 µM |
| COc1cc([C@@H]2c3cc4c(cc3[C@@H](/N=C/c3ccc(C(=O)O[C@@H](C(=O)O[C@H]5C[C@@]6(O)[C@@H](OC(=O)c7ccccc7)[C@@H]7[C@]8(OC(C)=O)CO[C@@H]8C[C@H](O)[C@@]7(C)C(=O)[C@H](OC(C)=O)C(=C5C)C6(C)C)[C@@H](NC(=O)c5ccccc5)c5ccccc5)cc3)[C@H]3COC(=O)[C@H]23)OCO4)cc(OC)c1O | active: 0.0476 µM |
| CC(NNC(=O)c1cc[n+]([BH2-]C#N)cc1)c1cccc(F)c1 (centres undefined) | inactive: > 100 µM |
| CC1(C)CCCC2(C)[C@@H]1CC[C@]13C[C@](C)(CC[C@@H]21)[C@@H]3CO (some centres undefined) | inactive: > 100 µM |
| Nc1nc2c3c(ncn3CC(O)CO2)n1 (centres undefined) | inactive: > 100 µM |
| CC(C)CSCC1OC(n2cnc3c(N)nccc32)C(O)C1O (centres undefined) | inactive: > 100 µM |
| CCCCCCCCCCCCCCCCOCC(CP(=O)([O-])OCC[n+]1ccccc1)OC (centres undefined) | inactive: 18.8 µM |
| COC1=C(C)C(=O)c2c(c(COC(N)=O)c3n2CC2C3N2C)C1=O (centres undefined) | active: 0.104 µM |
| COc1ccc2[nH]c3c(C)c4cc[n+](C)cc4c(C)c3c2c1 | active: 0.769 µM |
| CC(C)(C)OC(=O)CCC1NC(=O)[C@@H]2Cc3c([nH]c4ccccc34)C(c3ccccc3)N2C1=O (some centres undefined) | inactive: 36.1 µM |
| Cc1cc(-c2nc3cc(F)c(F)cc3s2)ccc1N | inactive: > 92 µM |
| CC(=O)OCC1OC(NC(=O)N(CCCl)N=O)C(OC(C)=O)C(OC(C)=O)C1OC(C)=O (centres undefined) | inactive: > 100 µM |
| Nc1nc(O)c2ncn(C3C=CC(CO)C3)c2n1 (centres undefined) | inactive: > 100 µM |
| Cc1cc(C)cc(-n2c3nc(=O)n(C)c(=O)c-3nc3ccccc32)c1 | inactive: 30.5 µM |
